Experimental data reported in PubChem BioAssay AID651820 (National Center for Advancing Translational Sciences (NCATS), 2012).
Values joined by “and” are separate entries in the source; they are usually repeats but may differ in a detail not shown here. Identical values can stand only once. About 12,000 (3.5%) of roughly 340,000 compounds were called active. Inconclusive means that the source gave no clear call. Such entries were picked first, then a sample of the others. Calls come from the whole dose curve; as a rule, active = well fitted inhibition curve with a large enough effect; inconclusive = small, poorly fitted or top-dose-only effect, or another doubt; inactive = no such curve, though single readings can be large or run the other way. A potency beside an inconclusive call is a rough fit, not a confirmed value.

Test: qHTS Assay for Inhibitors of Hepatitis C Virus (HCV)
Conditions: Huh7.5.1 HCVcc-Cre (HCVcc is cell-culture hepatitis C virus) infection, luciferase reporter, 44 h; activity change, negative = inhibition: at 41.8 µM (top of the series)
Method in brief: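 Seed cells (1,000/well) for 4 h; treat with compound and infect with HCVcc-Cre, moi about 0.5. Incubate 44 h, then detect luciferase activity.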
% is set by controls: 0 for no effect and ±100 for the full control effect; potency is the fitted concentration of half-maximal effect; tags give direction and shape of the fitted curve.

| SMILES | Potency | activity change, negative = inhibition |
| --- | --- | --- |
| COc1ccccc1N1CCN(C(=S)Nc2ccc(S(=O)(=O)N3CCOCC3)cc2)CC1 | inconclusive: 31.6 µM [inhibitor, single point] |  |
| COc1ccc(C)cc1S(=O)(=O)N(C)CC(=O)NC1CCCC1 |  | inactive: -11% |
| CN(CC(=O)Nc1ccc(Cl)c(C(F)(F)F)c1)C(=O)c1ccccc1SCC(=O)N1CCCC1 | inconclusive: 22.4 µM [inhibitor, single point] |  |
| O=C(Oc1cccc(-n2cnnn2)c1)c1ccco1 |  | inactive: -2.41% |
| CCN1CCN(c2cc(C)c3cc(NC(=O)c4cncc(Br)c4)ccc3n2)CC1 | active: 5.62 µM |  |
| Cc1ccc(-n2nnc3c(=O)n(CC(=O)N4CCC(C)CC4)cnc32)cc1 |  | inactive: -21.9% |
| O=C1COc2ccc(C(=O)COc3ccc(Cl)cc3Br)cc2N1 | inconclusive: 6.31 µM [inhibitor, partial curve] |  |
| COc1cc(NC(=O)Cc2ccccc2)ccc1NC(=O)c1ccccc1 | inconclusive: 14.1 µM [inhibitor, partial curve] |  |
| Cc1ccc(NC(=O)CN2CCCC2c2cccs2)cc1S(=O)(=O)N1CCCCC1 (configuration not stated) | active: 7.94 µM |  |
| Cn1c(=O)n(Cc2ccc(F)cc2)c(=O)c2c1nc1n2CCCN1C1CCCCC1 |  | inactive: 11.7% |
| C=CCN1C(c2ccc(OCC)cc2)=CS/C1=C(\C#N)c1nnc2n1CCCCC2 | inconclusive: 31.6 µM [inhibitor, partial curve] and inconclusive: 22.4 µM [inhibitor, single point] |  |
| Cc1ccc(C)c(-c2csc(NC(=O)c3c(C)noc3C)n2)c1 | inconclusive: 8.91 µM [inhibitor, partial curve] |  |
| COc1ccccc1OCc1nnc(SCC(=O)c2cc(Cl)ccc2OC)o1 | inconclusive: 12.6 µM [inhibitor, single point] |  |
| Cc1cc(NC(=O)Cn2nnc3sc4c(c3c2=O)CCC(C(C)(C)C)C4)no1 (configuration not stated) | active: 11.2 µM |  |
| CCCCNC(=O)CSc1nc2cc3c(cc2c(=O)n1CCCN(CC)CC)OCO3 | inconclusive: 3.16 µM [inhibitor, single point] |  |
| Cc1ncc(CO)c(/C=N/NC(=S)Nc2cccc(Cl)c2)c1O | inconclusive: 22.4 µM [inhibitor, single point] |  |
| Cn1cnnc1Sc1ccc(/C=C(\CC(=O)O)c2nc3ccccc3s2)cc1[N+](=O)[O-] | inconclusive: 3.16 µM [inhibitor, single point] |  |
| Cc1nc(CSc2nnc(Nc3cccc(C)c3C)s2)cs1 | inconclusive: 0.501 µM [inhibitor, partial curve, poor fit] |  |
| Cc1ccccc1Nc1c(-c2cccnc2)nc2ccccn12 |  | inactive: -19.2% |
| CCC(=O)Nc1cccc(C2=NOC3(C2)C[C@@H](C(N)=O)N(C(=O)c2ccccc2C(=O)c2ccccc2)C3)c1 (some centres not stated) |  | inactive: 1.71% |
| CN(C)CCCNS(=O)(=O)c1ccc(N2CCC(c3ccc(Cl)cc3)=N2)cc1 | active: 3.98 µM |  |
| CC1(C)Cc2cccc(OCC(=O)N3CCN(S(=O)(=O)c4ccccc4)CC3)c2O1 |  | inactive: 5.64% |
| O=C(CSc1nccc(=O)[nH]1)Nc1ccc2c(c1)OCCO2 | inconclusive: 4.47 µM [inhibitor, single point] |  |
| CCn1c(=O)n(CC)c2cc(S(=O)(=O)N3CCc4ccccc43)ccc21 | active: 12.6 µM |  |

| SMILES | Potency | activity change, negative = inhibition |
| --- | --- | --- |
| CN(C)c1ccc(C(=O)OCC(=O)Nc2cccc(S(=O)(=O)N3CCCC3)c2)cc1 | inconclusive: 25.1 µM [inhibitor, partial curve, poor fit] |  |
| CN(c1cccc(Cl)c1)S(=O)(=O)c1cccc(C(=O)NCc2ccncc2)c1 | inconclusive: 31.6 µM [inhibitor, single point] |  |
| C[C@H](CO)N1C[C@H](C)[C@@H](CN(C)Cc2ccc(Cl)c(Cl)c2)Oc2c(NS(=O)(=O)c3ccc(F)cc3)cccc2C1=O | inconclusive: 12.6 µM [inhibitor, single point] |  |
| CC(C)(C)c1ccc(-c2csc(NNC3=NCCCCC3)n2)cc1 | active: 25.1 µM |  |
| Cc1ccc(OP(=O)(NC(C)c2ccccc2)Oc2ccc(C)cc2)cc1 (configuration not stated) | inconclusive: 31.6 µM [inhibitor, single point] |  |
| O=C(Cc1ccc(S(=O)(=O)N2CCOCC2)s1)N1CCN(S(=O)(=O)c2ccccc2F)CC1 |  | inactive: -0.3% |
| CCOC(=O)N1CCN(C(=O)c2ccc(N(C)S(=O)(=O)c3ccc(C)cc3)cc2)CC1 | active: 14.1 µM |  |
| OC(C1=CC(=Cc2ccncc2)c2ccccc21)c1ccncc1 (configuration not stated) | active: 11.2 µM |  |
| CCCCN(C(=O)c1ccc(-c2ccc(Cl)cc2)o1)c1c(N)n(CCC)c(=O)[nH]c1=O |  | inactive: -4.23% |
| COc1ccc(NC(=O)C2CCC(=O)N2C(=O)OCc2ccccc2)cc1 (configuration not stated) |  | inactive: 11.8% |
| Cn1cc(C(=O)c2ccc(F)cc2)cc1-c1nc2ccccc2n1C | inconclusive: 11.2 µM [inhibitor, partial curve] |  |
| O=C(c1ccc(N2CCCC2=O)cc1)N1CCN(c2cccc(C(F)(F)F)c2)CC1 | inconclusive: 28.2 µM [inhibitor, single point] |  |
| COc1cc2[nH]c(=O)n(CCCCCC(=O)N3CCN(c4ccccc4)CC3)c(=O)c2cc1OC | inconclusive: 15.8 µM [inhibitor, single point] and inconclusive: 28.2 µM [inhibitor, single point] |  |
| Cc1ccc2c(c1)COc1c3ccc(C(=O)N[C@@H](CO)C(C)C)cc3nn1-2 | inconclusive: 10 µM [inhibitor, single point] |  |
| O=c1c2cccnc2[nH]c(=S)n1CCCN1CCN(c2ccccc2F)CC1 |  | inactive: -2.21% |
| O=C(Nc1nc2ccccc2[nH]1)C1CCN(C(=O)c2ccc(F)cc2)CC1 |  | inactive: -2.19% |
| O=C(Nc1nnc(C2CC2)s1)c1ccc(Cl)c(S(=O)(=O)N2CCc3ccccc3C2)c1 | inconclusive: 31.6 µM [inhibitor, single point] |  |
| COc1ccccc1-n1cnnc1SCC(=O)N1CCOCC1 |  | inactive: 8.56% |
| COc1ccc(C(CNC(=O)c2cc(C)on2)N(C)C)cc1 (configuration not stated) |  | inactive: 18.8% |
| O=C(CCn1c(=O)c2cccn2c2ccccc21)Nc1ccc(F)cc1 | inconclusive: 10 µM [inhibitor, partial curve] |  |
| Cc1cc(NC(=O)COC(=O)c2c(C)nn(Cc3ccccc3Cl)c2Cl)no1 | inconclusive: 5.62 µM [inhibitor, single point] |  |
| COc1ccccc1C(=O)C1CCCN(C(=O)CN2CCCCC2=O)C1 (configuration not stated) |  | inactive: 8.7% |
| CCN(CC)c1ccc(CC2C(=O)N(C)C(=O)N(C)C2=O)cc1 |  | inactive: -0.446% |
| CCOC(=O)C1(C)NC(c2ccc(OC)c(OC)c2)C2C(=O)N(CC)C(=O)C21 (configuration not stated) |  | inactive: -3.37% |

| SMILES | Potency | activity change, negative = inhibition |
| --- | --- | --- |
| COc1cc(S(=O)(=O)Nc2cccc(C)c2)ccc1NC(=O)c1cccnc1 | inconclusive: 28.2 µM [inhibitor, single point] |  |
| CC(NC(=O)CN1CCCC1)c1ccccc1 (configuration not stated) |  | inactive: 15.4% |
| O=C(Nc1ccccc1N1CCN(c2ccccc2)CC1)c1ccccc1 | inconclusive: 31.6 µM [inhibitor, single point] |  |
| Cc1ccc(C)c(CN2C(=O)c3ccccc3S(=O)c3ccc(C(=O)N4CCN(c5ccccn5)CC4)cc32)c1 (configuration not stated) | active: 11.2 µM |  |
| COc1ccc(Cn2c(=O)sc3ccccc32)cc1OC | inconclusive: 10 µM [inhibitor, partial curve] |  |
| O=C(COc1ccc(Cl)cc1)Nc1ccc(C(=O)NCc2cccnc2)cc1 | active: 12.6 µM |  |
| O=C(CN1C(=O)C(=O)N(C2CCCC2)C1=O)Nc1ccc(Cl)cc1C(F)(F)F |  | inactive: -6.18% |
| N#Cc1cc(C(=O)c2cc(Br)ccc2O)cn(Cc2ccccc2)c1=O | inconclusive: 31.6 µM [inhibitor, single point] |  |
| CCNc1c(NC(=O)c2cccs2)c(=O)oc2ccccc12 |  | inactive: 2.97% |
| O=C1/C(=C/c2ccccc2F)SC(=S)N1CC(=O)N1CCCCC1c1cccnc1 (configuration not stated) | inconclusive: 25.1 µM [inhibitor, partial curve] |  |
| O=C(NC(=S)N1CCN(c2ccccc2)CC1)c1ccc(S(=O)(=O)N2CCOCC2)cc1 |  | inactive: -17.8% |
| C#CCSc1nc(Cc2ccc(Cl)cc2)nc2ccccc12 | inconclusive: 31.6 µM [inhibitor, single point] |  |
| Cc1c(/C=N/NC(=O)CNc2ccccc2)c2ccccn2c1C(=O)c1ccccc1 | inconclusive: 31.6 µM [inhibitor, partial curve] |  |
| Cn1c(CNC(=O)CCNC(=O)c2ccccc2)cc(=O)n(C)c1=O |  | inactive: -29.6% |
| FC(F)(F)c1nc(-c2ccncc2)ncc1-c1nnnn1-c1ccccc1 |  | inactive: -12.9% |
| COc1ccc(C(=O)NCC(c2ccc3c(c2)OCO3)N2CCN(c3ccc(OC)cc3)CC2)cc1 (configuration not stated) | inconclusive: 11.2 µM [inhibitor, partial curve] |  |
| COc1cc(OC)c(C(=O)OCC(=O)Nc2ccccc2Cl)cc1OC |  | inactive: -3.39% |
| COc1ccc(S(=O)(=O)N2CCCCC2)cc1NC(=O)c1ccc2ccccc2n1 | inconclusive: 14.1 µM [inhibitor, single point] |  |
| COc1ccc(CCNc2ncnc3c2c(C)c(C)n3CCO)cc1OC | inconclusive: 22.4 µM [inhibitor, single point] |  |
| CC1CC(C)(C)CC2(C1)NC(=O)N(CC(=O)Nc1cc([N+](=O)[O-])ccc1F)C2=O (configuration not stated) |  | inactive: -17.9% |
| COC(=O)C1=C(c2c(C)noc2C)C[C@@H]2CC[C@H]1N2C(=O)NCCNC(C)=O |  | inactive: 9.89% |
| CCOc1cc(/C=N/NC(=O)COc2ccc(C)cc2)ccc1OC(=O)c1cccs1 |  | inactive: 2.37% |
| CSc1nsc(SCC(=O)N2CCCc3ccccc32)n1 | inconclusive: 15.8 µM [inhibitor, single point] |  |
| CCN(CC)C(=O)c1cc(C(C)(C)C)c(O)c(C(C)(C)C)c1 | inconclusive: 15.8 µM [inhibitor, single point] |  |
